Data on 63 sequences can be found in paper PMC12820563.

The other results are listed elsewhere or left out. The list includes weakly bound sequences.

The assay has as its target T1, MBP-FoxP3dN (UniProt Q99JB6).
T1 sequence: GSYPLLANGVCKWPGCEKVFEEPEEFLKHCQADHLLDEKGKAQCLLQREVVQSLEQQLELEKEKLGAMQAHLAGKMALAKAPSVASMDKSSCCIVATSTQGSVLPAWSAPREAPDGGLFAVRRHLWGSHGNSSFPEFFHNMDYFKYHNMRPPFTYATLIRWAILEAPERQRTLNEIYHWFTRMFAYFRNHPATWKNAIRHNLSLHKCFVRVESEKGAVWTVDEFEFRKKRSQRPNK
As to the kind of experiment: PD-seq (MBP pull-down with sequencing). The settings on record: 20 mM Tris-HCl pH 7.5, 100 mM NaCl, 1.5 mM MgCl2, 0.4 uM protein, 0.1 uM dsDNA library, 30 min, room temperature, amylose pull-down; high values mean tight binding; double strand, one strand shown.
“GATGATTGTTCTCCCAGCTGATGAATTCTATAGATCGAGTAAACAAATTTTCCTAATCTTTCTGTTCAAGCGCCATCTAC”: the binding signal (RPM ratio (pull-down/input)) worked out at 0.347.
In the case of “GATGATTGTTCTCCCAGCTGATGAATTAGCTCAATCGAGTAAACAAATTTTCCTAATCTTTCTGTTCAAGCGCCATCTAC” it was 0.251; in that of “GATGATTGTTCTCCCAGCTGATGAATTTCAGTCCTCGAGTAAACAAATTTTCCTAATCTTTCTGTTCAAGCGCCATCTAC”, 0.396.
The same measure for “GATGATTGTTCTCCCAGCTGATGAATTGACTCGCTCGAGTAAACAAATTTTCCTAATCTTTCTGTTCAAGCGCCATCTAC”: 0.331; for “GATGATTGTTCTCCCAGCTGATGAATTTAATTCATCGAGTAAACAAATTTTCCTAATCTTTCTGTTCAAGCGCCATCTAC”: 0.605.
Regarding “GATGATTGTTCTCCCAGCTGATGAATTCTAGTCGTCGAGTAAACAAATTTTCCTAATCTTTCTGTTCAAGCGCCATCTAC”, the binding signal (RPM ratio (pull-down/input)) stood at 0.429.
The same measure for “GATGATTGTTCTCCCAGCTGATGAATTGATTACTTCGAGTAAACAAATTTTCCTAATCTTTCTGTTCAAGCGCCATCTAC”: 1.48; for “GATGATTGTTCTCCCAGCTGATGAATTCGTATGCTCGAGTAAACAAATTTTCCTAATCTTTCTGTTCAAGCGCCATCTAC”: 2.01.
Turning to “GATGATTGTTCTCCCAGCTGATGAATTCTCGAGTTCGAGTAAACAAATTTTCCTAATCTTTCTGTTCAAGCGCCATCTAC”, the binding signal (RPM ratio (pull-down/input)) amounted to 0.325.
In the case of “GATGATTGTTCTCCCAGCTGATGAATTCGAAACGTCGAGTAAACAAATTTTCCTAATCTTTCTGTTCAAGCGCCATCTAC” it was 0.281; in that of “GATGATTGTTCTCCCAGCTGATGAATTACCAGAGTCGAGTAAACAAATTTTCCTAATCTTTCTGTTCAAGCGCCATCTAC”, 0.23.
As to “GATGATTGTTCTCCCAGCTGATGAATTCGTTGGATCGAGTAAACAAATTTTCCTAATCTTTCTGTTCAAGCGCCATCTAC”, the binding signal (RPM ratio (pull-down/input)) came to 0.659.
As to “GATGATTGTTCTCCCAGCTGATGAATTGAGCGGCTCGAGTAAACAAATTTTCCTAATCTTTCTGTTCAAGCGCCATCTAC”, the binding signal (RPM ratio (pull-down/input)) was found to be 0.486.
The same measure for “GATGATTGTTCTCCCAGCTGATGAATTTTCCATGTCGAGTAAACAAATTTTCCTAATCTTTCTGTTCAAGCGCCATCTAC”: 0.215; for “GATGATTGTTCTCCCAGCTGATGAATTCTATGCTTCGAGTAAACAAATTTTCCTAATCTTTCTGTTCAAGCGCCATCTAC”: 0.793; for “GATGATTGTTCTCCCAGCTGATGAATTCCCTTAATCGAGTAAACAAATTTTCCTAATCTTTCTGTTCAAGCGCCATCTAC”: 0.224.
The same measure for “GATGATTGTTCTCCCAGCTGATGAATTTTGGGCTTCGAGTAAACAAATTTTCCTAATCTTTCTGTTCAAGCGCCATCTAC”: 0.396.
In the case of “GATGATTGTTCTCCCAGCTGATGAATTGTGCACTTCGAGTAAACAAATTTTCCTAATCTTTCTGTTCAAGCGCCATCTAC” it was 2.32; in that of “GATGATTGTTCTCCCAGCTGATGAATTTAACAGATCGAGTAAACAAATTTTCCTAATCTTTCTGTTCAAGCGCCATCTAC”, 0.216.
“GATGATTGTTCTCCCAGCTGATGAATTGTCCTTATCGAGTAAACAAATTTTCCTAATCTTTCTGTTCAAGCGCCATCTAC”: the binding signal (RPM ratio (pull-down/input)) came out at 0.451.
In the case of “GATGATTGTTCTCCCAGCTGATGAATTTGGGTGTTCGAGTAAACAAATTTTCCTAATCTTTCTGTTCAAGCGCCATCTAC” it was 1.11; in that of “GATGATTGTTCTCCCAGCTGATGAATTCGCTACATCGAGTAAACAAATTTTCCTAATCTTTCTGTTCAAGCGCCATCTAC”, 0.511; in that of “GATGATTGTTCTCCCAGCTGATGAATTCGCTTCATCGAGTAAACAAATTTTCCTAATCTTTCTGTTCAAGCGCCATCTAC”, 0.501.
In the case of “GATGATTGTTCTCCCAGCTGATGAATTAGGGTTATCGAGTAAACAAATTTTCCTAATCTTTCTGTTCAAGCGCCATCTAC” it was 0.973; in that of “GATGATTGTTCTCCCAGCTGATGAATTAGCGGGATCGAGTAAACAAATTTTCCTAATCTTTCTGTTCAAGCGCCATCTAC”, 0.308.
The same measure for “GATGATTGTTCTCCCAGCTGATGAATTAGAACTCTCGAGTAAACAAATTTTCCTAATCTTTCTGTTCAAGCGCCATCTAC”: 0.38.
As for “GATGATTGTTCTCCCAGCTGATGAATTAGAACTTTCGAGTAAACAAATTTTCCTAATCTTTCTGTTCAAGCGCCATCTAC”, the binding signal (RPM ratio (pull-down/input)) turned out to be 0.321.
The same measure for “GATGATTGTTCTCCCAGCTGATGAATTGTAAAGTTCGAGTAAACAAATTTTCCTAATCTTTCTGTTCAAGCGCCATCTAC”: 0.279; for “GATGATTGTTCTCCCAGCTGATGAATTCATGTCGTCGAGTAAACAAATTTTCCTAATCTTTCTGTTCAAGCGCCATCTAC”: 0.863.
In the case of “GATGATTGTTCTCCCAGCTGATGAATTGCCCCGATCGAGTAAACAAATTTTCCTAATCTTTCTGTTCAAGCGCCATCTAC” it was 0.331; in that of “GATGATTGTTCTCCCAGCTGATGAATTTTCGGTATCGAGTAAACAAATTTTCCTAATCTTTCTGTTCAAGCGCCATCTAC”, 0.454.
The same measure for “GATGATTGTTCTCCCAGCTGATGAATTTATTCGGTCGAGTAAACAAATTTTCCTAATCTTTCTGTTCAAGCGCCATCTAC”: 0.745.
For “GATGATTGTTCTCCCAGCTGATGAATTGGTGACATCGAGTAAACAAATTTTCCTAATCTTTCTGTTCAAGCGCCATCTAC”, the binding signal (RPM ratio (pull-down/input)) came to 0.812.
In the case of “GATGATTGTTCTCCCAGCTGATGAATTGATCAGTTCGAGTAAACAAATTTTCCTAATCTTTCTGTTCAAGCGCCATCTAC” it was 0.331; in that of “GATGATTGTTCTCCCAGCTGATGAATTATGATGTTCGAGTAAACAAATTTTCCTAATCTTTCTGTTCAAGCGCCATCTAC”, 3.29; in that of “GATGATTGTTCTCCCAGCTGATGAATTAGTGCTTTCGAGTAAACAAATTTTCCTAATCTTTCTGTTCAAGCGCCATCTAC”, 1.23.
In the case of “GATGATTGTTCTCCCAGCTGATGAATTGAGATGCTCGAGTAAACAAATTTTCCTAATCTTTCTGTTCAAGCGCCATCTAC” it was 0.752; in that of “GATGATTGTTCTCCCAGCTGATGAATTATGATAATCGAGTAAACAAATTTTCCTAATCTTTCTGTTCAAGCGCCATCTAC”, 0.653.
In the case of “GATGATTGTTCTCCCAGCTGATGAATTGTGTTATTCGAGTAAACAAATTTTCCTAATCTTTCTGTTCAAGCGCCATCTAC” it was 7.88; in that of “GATGATTGTTCTCCCAGCTGATGAATTGATAACATCGAGTAAACAAATTTTCCTAATCTTTCTGTTCAAGCGCCATCTAC”, 1.32.
As to “GATGATTGTTCTCCCAGCTGATGAATTTGTTAGGTCGAGTAAACAAATTTTCCTAATCTTTCTGTTCAAGCGCCATCTAC”, the binding signal (RPM ratio (pull-down/input)) turned out to be 5.73.
The same measure for “GATGATTGTTCTCCCAGCTGATGAATTAGACGCCTCGAGTAAACAAATTTTCCTAATCTTTCTGTTCAAGCGCCATCTAC”: 0.663.
The same measure for “GATGATTGTTCTCCCAGCTGATGAATTCGGCTATTCGAGTAAACAAATTTTCCTAATCTTTCTGTTCAAGCGCCATCTAC”: 1.91.
In the case of “GATGATTGTTCTCCCAGCTGATGAATTGGAGTCGTCGAGTAAACAAATTTTCCTAATCTTTCTGTTCAAGCGCCATCTAC” it was 0.445; in that of “GATGATTGTTCTCCCAGCTGATGAATTGGGGGTATCGAGTAAACAAATTTTCCTAATCTTTCTGTTCAAGCGCCATCTAC”, 0.977; in that of “GATGATTGTTCTCCCAGCTGATGAATTACCTAAGTCGAGTAAACAAATTTTCCTAATCTTTCTGTTCAAGCGCCATCTAC”, 0.236.
On to “GATGATTGTTCTCCCAGCTGATGAATTGATACAATCGAGTAAACAAATTTTCCTAATCTTTCTGTTCAAGCGCCATCTAC”, for which the binding signal (RPM ratio (pull-down/input)) is 2.15.
With “GATGATTGTTCTCCCAGCTGATGAATTGATATCTTCGAGTAAACAAATTTTCCTAATCTTTCTGTTCAAGCGCCATCTAC”, the binding signal (RPM ratio (pull-down/input)) worked out at 0.704.
In the case of “GATGATTGTTCTCCCAGCTGATGAATTCCAGCGGTCGAGTAAACAAATTTTCCTAATCTTTCTGTTCAAGCGCCATCTAC” it was 0.313.
In the case of “GATGATTGTTCTCCCAGCTGATGAATTAAATAACTCGAGTAAACAAATTTTCCTAATCTTTCTGTTCAAGCGCCATCTAC” it was 0.498.
In the case of “GATGATTGTTCTCCCAGCTGATGAATTTTGGGGATCGAGTAAACAAATTTTCCTAATCTTTCTGTTCAAGCGCCATCTAC” it was 0.345; in that of “GATGATTGTTCTCCCAGCTGATGAATTTTATCGTTCGAGTAAACAAATTTTCCTAATCTTTCTGTTCAAGCGCCATCTAC”, 1.38; in that of “GATGATTGTTCTCCCAGCTGATGAATTTAGCACCTCGAGTAAACAAATTTTCCTAATCTTTCTGTTCAAGCGCCATCTAC”, 1.49.
For the sequence “GATGATTGTTCTCCCAGCTGATGAATTCGGCTTTTCGAGTAAACAAATTTTCCTAATCTTTCTGTTCAAGCGCCATCTAC”, the binding signal (RPM ratio (pull-down/input)) was determined as 2.77.
As for “GATGATTGTTCTCCCAGCTGATGAATTAGTAAAGTCGAGTAAACAAATTTTCCTAATCTTTCTGTTCAAGCGCCATCTAC”, the binding signal (RPM ratio (pull-down/input)) was determined as 0.28.
The same measure for “GATGATTGTTCTCCCAGCTGATGAATTAGGCAATTCGAGTAAACAAATTTTCCTAATCTTTCTGTTCAAGCGCCATCTAC”: 3.75; for “GATGATTGTTCTCCCAGCTGATGAATTAACGCACTCGAGTAAACAAATTTTCCTAATCTTTCTGTTCAAGCGCCATCTAC”: 0.836.
The same measure for “GATGATTGTTCTCCCAGCTGATGAATTCAGTTTTTCGAGTAAACAAATTTTCCTAATCTTTCTGTTCAAGCGCCATCTAC”: 1.85; for “GATGATTGTTCTCCCAGCTGATGAATTCACTAGCTCGAGTAAACAAATTTTCCTAATCTTTCTGTTCAAGCGCCATCTAC”: 0.321; for “GATGATTGTTCTCCCAGCTGATGAATTGTCGTGATCGAGTAAACAAATTTTCCTAATCTTTCTGTTCAAGCGCCATCTAC”: 0.572.
“GATGATTGTTCTCCCAGCTGATGAATTTCTGCGGTCGAGTAAACAAATTTTCCTAATCTTTCTGTTCAAGCGCCATCTAC”: the binding signal (RPM ratio (pull-down/input)) turned out to be 0.261.
Take “GATGATTGTTCTCCCAGCTGATGAATTGGTCGTTTCGAGTAAACAAATTTTCCTAATCTTTCTGTTCAAGCGCCATCTAC”: the binding signal (RPM ratio (pull-down/input)) is 0.83.
In the case of “GATGATTGTTCTCCCAGCTGATGAATTTTAACGCTCGAGTAAACAAATTTTCCTAATCTTTCTGTTCAAGCGCCATCTAC” it was 0.391.
